Measured values published in PubChem BioAssay AID1645887 (National Center for Advancing Translational Sciences (NCATS), 2021).
Values joined by “and” are separate entries in the source; they are usually repeats but may differ in a detail not shown here. Identical values can stand only once. Screen size: about 16,000 compounds; about 40 (0.2%) were called active. About 1% were inconclusive and are not listed. The call rests on the fitted dose curve; in most records, active means well fitted activation curve with a large enough effect; inconclusive means small, poorly fitted or top-dose-only effect, or another doubt; inactive means no such curve, though single readings can be large or run the other way. Some of the results follow.

What follows are compounds tested against Rap guanine nucleotide exchange factor 4 (Homo sapiens) (UniProt Q8WZA2) (assay: Validation qHTS for agonist of cAMP-regulated guanine nucleotide exchange factor 4 (EPAC2)). Conditions: EPAC2 Rap1B BODIPY-GDP exchange, fluorescence; activation: hits give high values.
Source text: Principle Investigator: Xiaodong Cheng Ph.D.
The University of Texas Medical Branch, […], TX
In multi-cellular eukaryotic organisms, the effects of cAMP are transduced by two ubiquitously-expressed intracellular cAMP receptors, the classic protein kinase A/cAMP-dependent protein kinase (PKA/cAPK) and the more recently discovered exchange protein directly activated by cAMP/cAMP-regulated guanine nucleotide exchange factor (EPAC/cAMP-GEF). Both PKA and EPAC are ubiquitously expressed in all tissues, and an increase in intracellular cAMP levels will lead to the activation of both PKA and EPAC. Therefore, careful dissections of the individual role and relative contribution of EPAC and PKA within the overall cAMP signaling in various model systems are critical for further elucidating the mechanism of cAMP signaling. To date no EPAC-specific antagonists and agonist, as well as isoform-specific agonists have been reported, and developing EPAC-specific pharmacological probes to determine the physiological functions that EPAC play in the overall cAMP-mediated signaling remains a major challenge within the research field. Furthermore, identified regulators of EPAC may lead to new mechanism-based therapeutic strategies specifically targeting the EPAC / cAMP-signaling components as EPAC has been implicated to play important roles in major human pathological conditions such as diabetes, heart disease, and cancer.
This qHTS will be used to screen the Molecular Libraries Small Molecule Repository (MLSMR) as a concentration-titration series using the NCGC unique quantitative screening (qHTS) platform to find activators for EPAC1. In addition, this assay will also be used as a counterscreen for the EPAC2 qHTS. This fluorescent based assay is developed and validated for EPAC1 that measures exchange using EPAC effector Rap1 complex with BODIPY-GDP, a GDP analog with a tethered fluorophores. Activators are identified by monitoring the change in fluorescence signal as the exchanged free BODIPY-GDP has a reduced fluorescence compared to Rap1-bound BODIPY-GDP. Increase in signal (activation) is the desired outcome for the EPAC1 agonist while no activity in this assay is desired for the EPAC2 agonist counterscreen.
[1] de Rooij, J., Zwartkruis, F. J., Verheijen, M. H., Cool, R. H., Nijman, S. M., Wittinghofer, A., and Bos, J.L. (1998) Nature 396, 474-477.
Briefly, three uL of reagents (100 nM EPAC2, 250 nM RAP1B-BODIPY-GDP, 50 uM GDP) were dispensed into a 1536-well Greiner black solid-bottom medium binding assay plate. Controls and test compounds (23 nL) were transferred to the plate via a Kalypsys pin tool equipped with a 1536-pin array. The plates were centrifuged at 1,000 rpm for 15 seconds followed by 5 minute incubation at room temperature. The assay plates were read at 5 minute intervals for 30 minutes in the ViewLux plate reader using 480nm excitation and 540nm emission filters. The results were normalized to the agonist positive control of 6.5 mM cAMP.
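Further: exchange makes BODIPY-GDP fluorescence drop when released from Rap1B; series mostly up to about 150 µM.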
On the % scale 0 is the no-effect control and ±100 the full control effect.

UniProt Q8WZA2, sequence (Q8WZA2 whole entry, looked up): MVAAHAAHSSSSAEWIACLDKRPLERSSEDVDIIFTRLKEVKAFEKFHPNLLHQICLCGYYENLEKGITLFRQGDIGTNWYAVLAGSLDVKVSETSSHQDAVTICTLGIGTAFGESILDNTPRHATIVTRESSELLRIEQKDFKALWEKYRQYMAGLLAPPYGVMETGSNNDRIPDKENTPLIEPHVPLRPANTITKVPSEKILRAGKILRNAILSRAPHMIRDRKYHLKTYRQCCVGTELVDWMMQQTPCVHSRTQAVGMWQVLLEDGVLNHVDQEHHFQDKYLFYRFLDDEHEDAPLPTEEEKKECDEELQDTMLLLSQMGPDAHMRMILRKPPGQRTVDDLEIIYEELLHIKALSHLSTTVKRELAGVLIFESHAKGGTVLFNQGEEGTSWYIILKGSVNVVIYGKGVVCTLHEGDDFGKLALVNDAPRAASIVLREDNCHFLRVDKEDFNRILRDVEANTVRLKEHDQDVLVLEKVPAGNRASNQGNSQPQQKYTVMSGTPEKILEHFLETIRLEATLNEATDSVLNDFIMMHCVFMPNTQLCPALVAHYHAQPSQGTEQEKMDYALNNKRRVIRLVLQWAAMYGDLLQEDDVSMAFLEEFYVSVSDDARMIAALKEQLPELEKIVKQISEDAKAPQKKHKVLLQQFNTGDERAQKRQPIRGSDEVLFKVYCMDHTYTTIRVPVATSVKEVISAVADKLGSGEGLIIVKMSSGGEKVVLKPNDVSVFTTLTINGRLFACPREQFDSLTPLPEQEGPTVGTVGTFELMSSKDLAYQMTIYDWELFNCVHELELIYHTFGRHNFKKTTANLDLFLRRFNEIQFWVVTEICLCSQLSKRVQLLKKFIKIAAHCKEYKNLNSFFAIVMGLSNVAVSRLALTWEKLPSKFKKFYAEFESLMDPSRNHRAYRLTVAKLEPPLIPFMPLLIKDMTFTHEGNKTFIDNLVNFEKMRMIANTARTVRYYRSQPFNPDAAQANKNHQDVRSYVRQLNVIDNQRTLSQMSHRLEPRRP

activation, inactive:
CC(=O)c1c(O)c(C)c(O)c2c1OC1=CC(=O)C(C(C)=O)C(=O)C12C (configuration not stated) -15.7%
COc1ccc(-c2nc3cnc(OC)nc3n(C3CC3)c2=O)cc1 -12.8%
H-RKDVY-OH -19.4%
O=c1cnc2cnc(N3CCNCC3)nc2n1C1CC1 -8.96%
C[C@]12CC[C@@H]3c4ccc(O)cc4CC[C@H]3[C@@H]1CCC2=O -11.6% and -10.8% and -12.6%
CCOC(=O)C1=C[C@]2(CC)CCCN3CCc4c(n1c1ccccc41)[C@@H]32 1.02% and -9.68% and -20.9%
Cc1ccc(S[C@@H](CCN2CC[C@H](O)CCC2=O)c2ccccc2)cc1 -17.7%
CC1=C2C(O)C(=O)OC3CC4C(C)(C)C(=O)C=C[C@]4(C)C(CC1)[C@@]23C (some centres not stated) 1.63%
COc1ccc(-c2nc3cnc(N(C)C)nc3n(Cc3cccs3)c2=O)cc1 -3.88%
CC(=O)c1cc2c(cc1O)OC(C)(C)C=C2 -19.1%
CC1CN(S(=O)(=O)c2cccc3cnccc23)CCN1 (configuration not stated) -27.9%
COc1ccc(CN2[C@@H](CC(=O)O)c3ccc(/C=C/C(=O)O)cc3S2(=O)=O)cc1 0.479%
CC(=O)OCC(=O)[C@@]1(O)CC[C@H]2[C@@H]3C[C@H](C)C4=CC(=O)C=C[C@]4(C)[C@H]3[C@@H](O)C[C@@]21C -15.1%
COc1ccc(C(=O)N2CCN(CC(=O)N3CCOCC3)CC2)cc1 -3.65%
Cc1ccccc1CN1[C@@H](CC2CCCCC2)COCCS1(=O)=O -34.6%
Cc1cc(C(=O)NCC2CCC3(CCN(Cc4cccc(F)c4F)CC3)O2)n(C)n1 (configuration not stated) -8.25%
CNc1ccnc(-c2c(C)noc2C)n1 -10.9%
COc1ccc(C2CC(=O)c3c(O)cc(O)cc3O2)cc1O (configuration not stated) -16.7%
Cc1noc(C)c1-c1nccc(NCc2cccs2)n1 -17.6%
CCCCC/C=C\C\C=C/C=C/C=C/[C@@H](SC[C@H](NC(=O)CC[C@H](N)C(=O)O)C(=O)NCC(=O)O)[C@@H](O)CCCC(=O)O 3.5%
CCOc1ccc(S(=O)(=O)O)c2cccnc12 -35.6%
CCCCCCCCCCCCCC[N+](C)(C)Cc1ccccc1 -7.52%
CC(=O)Nc1ccccc1-c1nc(CNC(=O)c2cccc(F)c2)c(C)o1 -2.86%
CCOC(OCC)P(=O)(O)CCCNCc1ccc(Cl)c(Cl)c1 -12.6% and -16.7%
Cc1cccc(CN2CCN(C(c3ccccc3)c3ccc(Cl)cc3)CC2)c1 (configuration not stated) -10.6% and -7.08%
Cc1cc(C)cc(C(=O)NCc2nc(-c3cccc(NC(=O)c4ccccn4)c3)oc2C)c1 -7.85%
Cn1cc(-c2nc3cncnc3n(CCN)c2=O)c2ccccc21 -24.6%
CC(C)=CCC/C(C)=C/COc1c2occc2cc2ccc(=O)oc12 2.48%
COc1cnc(NS(=O)(=O)c2ccc(N)cc2)nc1 -13.7% and -13.5%
CCCCNC(=O)O[C@@H]1C[C@@H]2CCN3C(=O)CCC[C@H]([C@H]1CC)[C@H]23 -12.6%
N#CC(C#N)=C(N)/C(C#N)=C/c1ccc2[nH]ccc2c1 -2.19% and -0.836%
O=C1C2C=CC=CC2=NC(=S)N1CCN1CCC(=C(c2ccc(F)cc2)c2ccc(F)cc2)CC1 (configuration not stated) -40.9%
Cc1ncsc1CCC(=O)N1CCCC(c2nc(-c3ccncc3)ncc2-c2ccccc2)C1 (configuration not stated) -5.71%
O=C(O)CCC(=O)Nc1ccc(S(=O)(=O)Nc2nccs2)cc1 6.21% and -5.26%
O=C(c1ccncc1)N1CCC2(CC1)CCN(c1ccncc1)CC2 7.86%
COc1ccc(C(=O)C[n+]2cccc(Br)c2)cc1 -13.8%
O=NN(CCCl)C(=O)NC1CCCCC1 -10.6%
O=C(O)Cc1cn(-c2ccccc2)nc1-c1ccc(Cl)cc1 -13%
COc1ccccc1O -1.02% and 18.3%
CC1CNCCN1S(=O)(=O)c1cccc2cnccc12 (configuration not stated) 3.54% and -3.18% and -30.1%
CCCC1([C@H](O)C/C=C/[C@H]2[C@H](O)CC(=O)[C@@H]2CCCCCCC(=O)OC)CCC1 -44.2%
CNCCC(Oc1ccccc1OC)c1ccccc1 (configuration not stated) -0.977% and -17.3%
C[C@@H]1[C@H](c2ccccc2)OCCS(=O)(=O)N1Cc1ccc(Cl)cc1 -19.2%
N#CCCn1c(=O)c(-c2ccc(F)cc2)nc2cnc(Oc3cccc(Cl)c3)nc21 -0.68%
Oc1cc(-c2nc3ccccc3s2)cc2c1OCCN(Cc1cccn1-c1nccs1)C2 -12%
Nc1ncnc2c1ncn2[C@@H]1O[C@H](COP(=O)(O)OP(=O)(O)CP(=O)(O)O)[C@@H](O)[C@H]1O 5.76%
CC1(C)S[C@@H]2[C@H](NC(=O)[C@H](NC(=O)N3CCN(S(C)(=O)=O)C3=O)c3ccccc3)C(=O)N2[C@H]1C(=O)O 2.38%
CN(C(=O)CO)c1c(I)c(C(=O)NCC(O)CO)c(I)c(C(=O)NCC(O)CO)c1I (configuration not stated) -5.67%
CN1CCN(c2ncnc3ccc(-c4ccc(C(=O)N(C)C)cc4)cc23)CC1 -8.61%
CC(=O)N(Cc1ccc2c(c1)OCO2)Cc1cc2ccc(C)cc2nc1-c1cccc(C)c1 0.779%
CN1CCN(c2nc(-c3ccccc3C(F)(F)F)nc3ccccc23)CC1 -6.56%
COc1ccccc1-c1nccc(NCc2ccccc2)n1 -0.806%
